B1: PhoQ; a variant is named by its letters at X, in order, P23837 (parent)
chain: MKKLLRLFFPLSLRVRFLLATAAVVLVLSLAYGMVALIGYSVSFDKTTFRLLRGESNLFYTLAKWENNKLHVELPENIDKQSPTMTLIYDENGQLLWAQRDVPWLMKMIQPDWLKSNGFHEIEADVNDTSLLLSGDHSIQQQLQEVREDDDDAEMTHSVAVNVYPATSRMPKLTIVVVDTIPVELKSSYMVWSWFIYVLSANLLLVIPLLWVAAWWSLRPIEALAKEVRELEEHNRELLNPATTRELTSLVRNLNRLLKSERERYDKYRTTLTDLTHSLKTPLXXLQXXLRSLRSEKMSVSDAEPVMLEQISRISQQIGYYLHRASMRGGTLLSRELHPVAPLLDNLTSALNKVYQRKGVNISLDISPEISFVGEQNDFVEVMGNVLDNACKYCLEFVEISARQTDEHLYIVVEDDGPGIPLSKREVIFDRGQRVDTLRPGQGVGLAVAREITEQYEGKIVAGESMLGGARMEVIFGRQHSAPKDE

The other results are listed elsewhere or left out. A value given as a limit tells only on which side of the number the result lay.

In the experiment the parent is B1. Nature of the experiment: enrichment ratio after two sorts for PhoP signalling (ratio (wild type AVST 3.29)); higher = more functional. The following applies: with PhoP (E. coli).
Regarding VNCN, the enrichment ratio was ≤ 0.25.

Regarding VIFH, the enrichment ratio is ≤ 0.25.

As to HEQH, the enrichment ratio is ≤ 0.25. Next, DASP: ≤ 0.25; EAMW: ≤ 0.25; YEYG: ≤ 0.25. The same measure for SEML: 4.68. The same measure for KNRA: ≤ 0.25; for YNRS: ≤ 0.25; for DSNL: ≤ 0.25. For LMEV, the enrichment ratio was ≤ 0.25. Regarding YIRV, the enrichment ratio is ≤ 0.25. The same measure for YGHP: ≤ 0.25. Next, PLYW: ≤ 0.25; AEFT: 6.27; NTSH: ≤ 0.25. Next, EHNK: ≤ 0.25; PLWN: ≤ 0.25; ITDW: ≤ 0.25.

For the variant YYTD, the enrichment ratio was ≤ 0.25.

For the variant IQTV, the enrichment ratio is ≤ 0.25. The same measure for MCLV: 9.35.

Take ISKG: the enrichment ratio is ≤ 0.25. The same measure for PCFY: 0.338; for SNKL: ≤ 0.25.

Regarding LNSP, the enrichment ratio is ≤ 0.25. The same measure for QNRR: ≤ 0.25; for FIST: ≤ 0.25. The same measure for IIAK: ≤ 0.25; for AGEL: ≤ 0.25.

As for GVGD, the enrichment ratio is ≤ 0.25.

As to ELYQ, the enrichment ratio is ≤ 0.25. Next, NDII: ≤ 0.25. Turning to KRHV, the enrichment ratio was ≤ 0.25. The same measure for DCFC: ≤ 0.25. The same measure for YLVF: ≤ 0.25; for RHWS: ≤ 0.25. With QMGA, the enrichment ratio is ≤ 0.25.

With NMEL, the enrichment ratio was ≤ 0.25.

With MNNA, the enrichment ratio is ≤ 0.25. Next, MLPI: ≤ 0.25; QLYH: ≤ 0.25. Next, KNSI: ≤ 0.25; FYFW: ≤ 0.25. Next, GGSF: ≤ 0.25; YHWT: ≤ 0.25. Consider WERI, for which the enrichment ratio was ≤ 0.25. Consider IKYL, for which the enrichment ratio is ≤ 0.25. In the case of PYMK, the enrichment ratio was ≤ 0.25.

With LMMC, the enrichment ratio is ≤ 0.25.

Regarding GFND, the enrichment ratio was ≤ 0.25. Take DVVP: the enrichment ratio is ≤ 0.25. Regarding KCQG, the enrichment ratio is ≤ 0.25. The same measure for DEHW: ≤ 0.25; for RNPG: ≤ 0.25. Take HLIH: the enrichment ratio was ≤ 0.25. The same measure for DNCF: ≤ 0.25. Take MACE: the enrichment ratio is ≤ 0.25. As to FFWC, the enrichment ratio is ≤ 0.25. Next, GDNP: ≤ 0.25; KVLV: ≤ 0.25. Next, NRPQ: ≤ 0.25; TNVP: ≤ 0.25.

Take PKNP: the enrichment ratio was ≤ 0.25. Next, DWTT: ≤ 0.25. The same measure for NQII: ≤ 0.25; for SWLK: ≤ 0.25; for IPKP: ≤ 0.25.

Take PEWN: the enrichment ratio is ≤ 0.25. With GKAL, the enrichment ratio was ≤ 0.25.

As to AHCH, the enrichment ratio came to 2.08. The same measure for MRHC: ≤ 0.25; for EFEF: ≤ 0.25. Next, MKCY: ≤ 0.25. The same measure for NMSS: ≤ 0.25. With NQYH, the enrichment ratio was ≤ 0.25. Next, QFIV: ≤ 0.25; QEAP: ≤ 0.25; RSEM: ≤ 0.25. Consider QHMR, for which the enrichment ratio was ≤ 0.25. In the case of TTFF, the enrichment ratio is ≤ 0.25. The same measure for KGLM: ≤ 0.25; for ADTH: ≤ 0.25; for LHGQ: ≤ 0.25. The same measure for LAPW: ≤ 0.25; for DGKI: ≤ 0.25; for YGSM: ≤ 0.25. As to YNSC, the enrichment ratio was 0.283. The same measure for WCLM: 1.17; for NRCV: ≤ 0.25.

Take WAMW: the enrichment ratio was ≤ 0.25. The same measure for QLYY: ≤ 0.25; for PRQD: ≤ 0.25; for VPPR: ≤ 0.25. For the variant VLWI, the enrichment ratio is ≤ 0.25. Next, DRPA: ≤ 0.25; GLCM: 5.66; IERE: ≤ 0.25. The same measure for GMCM: 22. Next, LLFW: ≤ 0.25.

Take NYKW: the enrichment ratio is ≤ 0.25. Next, GTRS: ≤ 0.25. Next, ANML: 13; DECD: ≤ 0.25. Next, HHAR: ≤ 0.25; TKQS: 0.726; PDSA: ≤ 0.25. Take PFYF: the enrichment ratio is ≤ 0.25. The same measure for DALL: ≤ 0.25; for IEVG: ≤ 0.25; for INIR: ≤ 0.25. The same measure for WAYV: ≤ 0.25.

Consider NSSR, for which the enrichment ratio is ≤ 0.25. Next, PSAW: ≤ 0.25. Next, GWCQ: ≤ 0.25; WLLA: ≤ 0.25.

On to PGCS, for which the enrichment ratio was ≤ 0.25. Next, TKVD: ≤ 0.25; WNHW: ≤ 0.25. In the case of QIHG, the enrichment ratio came out at 2.32.

For LKKQ, the enrichment ratio was ≤ 0.25. Next, FTPF: ≤ 0.25; PCLR: ≤ 0.25. Next, LVNI: ≤ 0.25; IWYM: ≤ 0.25; TESH: 32.2. For PKSY, the enrichment ratio is ≤ 0.25. The same measure for LNRY: ≤ 0.25. Next, DQIC: 2.34. Next, NECW: ≤ 0.25; MNFK: ≤ 0.25; RHND: ≤ 0.25. Turning to QMCC, the enrichment ratio is ≤ 0.25.

GLKC: the enrichment ratio is ≤ 0.25.

Regarding QGTT, the enrichment ratio was ≤ 0.25. The same measure for CSWL: ≤ 0.25. Next, LYHG: ≤ 0.25; IGQW: ≤ 0.25; SYFK: ≤ 0.25. For the variant NHMT, the enrichment ratio is ≤ 0.25. As for QCFQ, the enrichment ratio was ≤ 0.25.

As for LCMK, the enrichment ratio turned out to be 0.987. The same measure for MDCM: ≤ 0.25; for KDAN: ≤ 0.25; for PGRT: ≤ 0.25. The same measure for GKDF: ≤ 0.25; for FMVI: ≤ 0.25. MFVA: the enrichment ratio was ≤ 0.25. The same measure for TIFG: ≤ 0.25. Next, PYFF: ≤ 0.25; VMDI: ≤ 0.25. Consider LKPG, for which the enrichment ratio is ≤ 0.25. Next, MPTA: ≤ 0.25.

(Values after a collection of fitness landscapes (doi:10.1126/science.1257360).)
